Measured values published in PubChem BioAssay AID1508623 (National Center for Advancing Translational Sciences (NCATS), 2021).
About 450 (0.94%) of roughly 48,000 compounds were called active. Inconclusive means that the source gave no clear call. Such entries were picked first, then a sample of the others. Calls come from the whole dose curve; as a rule, active = well fitted inhibition curve with a large enough effect; inconclusive = small, poorly fitted or top-dose-only effect; inactive = no such curve, though single readings can be large or run the other way. A potency beside an inconclusive call is a rough fit, not a confirmed value.

Assay: Primary qHTS for Identification of Small Molecule Inhibitors of Huntingtin Promoter Activity; note: nearly all actives have a fitted effect of over 50% in size
Conditions: HEK293 HTT promoter firefly luciferase reporter (activity 0% = vehicle and -100% = no light), 24 h; activity change, negative = inhibition: at 57.5 µM (top of the series)
How it was run: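 Firefly luciferase readout (Dual-Glo, 10 min RT) after 24 h, 37 °C compound exposure (final up to 57.5 uM) of HEK293 reporter cells cultured 24 h beforehand; PTC124 at 50 uM final as control inhibitor; activity scaled vehicle 0%, zero RLU -100%.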
Potency is the fitted concentration of half-maximal effect; tags give direction and shape of the fitted curve.

SMILES | Potency | activity change, negative = inhibition
O=[N+]([O-])c1ccc(O)c(-c2ccnc3cc(-c4ccccc4)nn23)c1 | inconclusive: 35.5 µM [inhibitor, single point] | 
CSc1nn(CC(=O)Nc2cc(C)ccc2C)c(N)c1S(=O)(=O)c1ccccc1 | inconclusive: 28.2 µM [inhibitor, partial curve, poor fit] | 
CCS(=O)(=O)Nc1ccc(-c2cn3c(C)csc3n2)cc1 | inconclusive: 14.1 µM [inhibitor, partial curve, poor fit] | 
Cc1cccc(N2C(=O)N(Cc3cccc(C#N)c3)c3ccccc3S2(=O)=O)c1 | inconclusive: 39.8 µM [inhibitor, single point] | 
O=C(CCS(=O)(=O)c1cc(Br)cc2c1N(C(=O)C1CC1)CC2)N1CCN(c2cccc(C(F)(F)F)c2)CC1 | inconclusive: 20 µM [inhibitor, partial curve] | 
CC(C)N(Cc1nc(-c2ccc(Cl)cc2)no1)C(=O)c1ccco1 | inconclusive: 39.8 µM [inhibitor, single point] | 
COC(=O)c1cc(C)nc2c1c(=O)nc(SCc1ccccc1Cl)n2C1CC1 | inconclusive: 39.8 µM [inhibitor, single point] | 
CCc1nnc2c(Nc3ccccc3Br)nc3ccccc3n12 | inactive | 
Cn1cnc(S(=O)(=O)N2CCC(C(=O)Nc3ccc(Cl)c(C(F)(F)F)c3)CC2)c1 | inconclusive: 28.2 µM [inhibitor, partial curve, poor fit] | 
Cc1cccc(C(C)C)c1NC(=O)c1ccc2c(c1)CCCN2S(C)(=O)=O | inconclusive: 35.5 µM [inhibitor, single point] | 
CCCn1cc(S(=O)(=O)c2cccc(Cl)c2)c(=O)c2cc(F)c(N3CCCC3)cc21 | inconclusive: 39.8 µM [inhibitor, single point] | 
Cc1ccc(S(=O)(=O)N(CC(=O)NCCSc2ccc(Cl)cc2)c2cccc(Cl)c2)cc1 | inconclusive: 31.6 µM [inhibitor, single point] | 
CCc1cc(=O)[nH]c(SCc2nc(-c3ccc(C(F)(F)F)cc3)no2)n1 | inconclusive: 31.6 µM [inhibitor, single point] | 
CCC(C)NC(=O)c1cnn(-c2cccc(F)c2)c1-n1cccc1 (stereo not given) | inconclusive: 25.1 µM [inhibitor, partial curve] | 
Oc1ccc(NCc2ccc(OCc3ccccc3)cc2)cc1 | inactive | 
CCOc1ccc(NC(=O)CCc2c(C)nc3cc(-c4ccc(Cl)cc4)nn3c2C)cc1 | inconclusive: 0.282 µM [inhibitor, full curve, poor fit] | 
CC(C)CNS(=O)(=O)c1ccc(N2CCCCS2(=O)=O)cc1 | inconclusive: 25.1 µM [inhibitor, partial curve, poor fit] | 
CCCOc1ccc(NC(=O)C(=O)NCCCN2CCOCC2)cc1 | inconclusive: 20 µM [inhibitor, partial curve] | 
COc1ccc(Cn2c(=O)c3ccccc3n3c(-c4cccc(OC)c4OC)nnc23)cc1 | inconclusive: 3.98 µM [inhibitor, partial curve, poor fit] | 
CC(C)OC(=O)C(C(=O)OC(C)C)=C1SC=CS1 | inactive | 

SMILES | Potency | activity change, negative = inhibition
Cc1cc(C)cc(NC(=O)N2CCN(c3cc(-c4noc(C)n4)ccc3C)CC2)c1 | inconclusive: 39.8 µM [inhibitor, single point] | 
CCOc1ncc(F)c(=O)[nH]1 | inactive | 
CN(C)CCN(Cc1ccco1)C(=O)c1oc2ccccc2c1NC(=O)c1cccc(F)c1 | inconclusive: 35.5 µM [inhibitor, single point] | 
CCNC(=O)c1c(NC(=O)c2nc(S(=O)(=O)CC)ncc2Cl)sc2c1CCCC2 | inactive | 
COc1ccc(CC(=O)NCCS(=O)(=O)N2CCN(c3ccc(F)cc3)CC2)cc1OC | inconclusive: 39.8 µM [inhibitor, single point] | 
Cc1cccc(C(=O)NC2=NC(c3ccc(Cl)cc3)CC(=O)N2)c1 (stereo not given) | inconclusive: 31.6 µM [inhibitor, partial curve, poor fit] | 
O=C(Nc1cccc(Cl)c1)C1CCCN(c2ncnc3c2nc2n3CCCCC2)C1 (stereo not given) | inactive | 
CSc1ccc(CCNC(=O)c2cc3cc(S(=O)(=O)N4CCCCC4)ccc3n2C)cc1 | inconclusive: 20 µM [inhibitor, partial curve, poor fit] | 
CC1CCCN(S(=O)(=O)c2cc3c4c(c2)CC(=O)N4CCC3)C1 (stereo not given) | inconclusive: 39.8 µM [inhibitor, single point] | 
CCc1ccc(C(=O)c2cn(CC(=O)Nc3cc(F)ccc3F)c3nc(C)ccc3c2=O)cc1 | inactive | 
COc1ccc(NS(=O)(=O)c2ccc3[nH]c4c(c3c2)CCCCC4)cc1 | inconclusive: 22.4 µM [inhibitor, partial curve, poor fit] | 
COc1ccc(CCNC(=O)c2ccc3c(c2)ncn3-c2ccc(C(C)C)cc2)cc1OC | inconclusive: 39.8 µM [inhibitor, single point] | 
CC(C)c1ccc2occ(CC(=O)N(Cc3ccc(F)cc3)C3CCS(=O)(=O)C3)c2c1 (stereo not given) | inconclusive: 39.8 µM [inhibitor, single point] | 
COc1ccccc1NC(=O)C1=C(C)Nc2ncnn2C1c1cccn1C (stereo not given) | inconclusive: 2.82 µM [inhibitor, partial curve, poor fit] | 
COc1cccc(CCc2ccccc2OCC(CN(C)C)OC(=O)CCC(=O)O)c1 (stereo not given) | inactive | 
Cc1c(C)n(Cc2ccc(-c3ccccc3C(=O)O)cc2)c2ccc(C(=O)N[C@@H](C)c3ccc([N+](=O)[O-])cc3)cc12 | inactive | 
CCOc1ccc(CNS(=O)(=O)c2ccc3c(c2)CCCN3C(C)=O)cc1 | inconclusive: 15.8 µM [inhibitor, partial curve, poor fit] | 
CCC(=O)N1CCc2cc(S(=O)(=O)Nc3cc(C)ccc3OC)ccc21 | inconclusive: 15.8 µM [inhibitor, partial curve, poor fit] | 
COc1ccc(-c2csc3ncnc(Nc4cc(OC)cc(OC)c4)c23)cc1 | inconclusive: 35.5 µM [inhibitor, single point] | 
CC(C)C(=O)Nc1ccc2nc(SCC(=O)N3CCc4ccccc43)sc2c1 | inconclusive: 39.8 µM [inhibitor, single point] | 

SMILES | Potency | activity change, negative = inhibition
COc1ccccc1CC(=O)Nc1ccc2nc(Nc3cccc(Cl)c3)cc(C)c2c1 | inconclusive: 31.6 µM [inhibitor, single point] | 
COc1ccccc1CNC(=O)c1ccc2c(c1)N(Cc1c(F)cccc1Cl)C(=O)CS2 | inconclusive: 39.8 µM [inhibitor, single point] | 
CC(C)c1ccc(NC(=O)Cn2cc(S(=O)(=O)Cc3ccccc3Cl)c3ccccc32)cc1 | inconclusive: 25.1 µM [inhibitor, single point] | 
CC1CCN(C(=O)CSc2nc3ccccc3nc2Cc2ccccc2)CC1 | inconclusive: 39.8 µM [inhibitor, single point] | 
CCn1c(=O)cc(OCC(=O)N2CCN(c3cccc(C)c3C)CC2)c2ccccc21 | inconclusive: 31.6 µM [inhibitor, single point] | 
Cc1cccc(NC(=O)CN2C(=O)C(c3ccc(F)cc3)=NC23CCCCCC3)c1 | inconclusive: 35.5 µM [inhibitor, partial curve, poor fit] | 
COc1cccc(C(=O)Oc2c(Sc3ccc(C)cc3)c(C)nn2C(C)(C)C)c1OC | inconclusive: 28.2 µM [inhibitor, partial curve, poor fit] | 
CCOc1ccccc1NC(=O)c1ccc(F)c(S(=O)(=O)N2CCN(c3ccc(F)cc3)CC2)c1 | inconclusive: 11.2 µM [inhibitor, partial curve] | 
CCOc1ccc(C(=O)NCCSc2c(C)[nH]c3ccccc23)cc1OCC | inconclusive: 39.8 µM [inhibitor, single point] | 
CC(=O)N1CCCc2cc(S(=O)(=O)N3CCC(C(=O)Nc4ccc(C)cc4Cl)CC3)ccc21 | inconclusive: 31.6 µM [inhibitor, partial curve, poor fit] | 
COc1ccccc1N1CCN(C(CNC(=O)C(=O)NCc2cccnc2)c2cccnc2)CC1 (stereo not given) | inconclusive: 22.4 µM [inhibitor, partial curve, poor fit] | 
Cn1cc(-c2cnn3c(N)c(Br)c([C@H]4CCCNC4)nc23)cn1 | inconclusive: 1.22 µM [inhibitor, full curve] | 
C[C@](N)(Cc1ccc(O)cc1)C(=O)O |  | inactive: -8.39% [at 6.01 µM]
Cc1ccc(NC(=O)c2oc3c(c2C)-c2[nH]ncc2CC3)c(Cl)c1 | inactive | 
CNC(=O)c1c(-c2ccc(F)cc2)oc2cc(N(CCO)S(C)(=O)=O)c(C3CC3)cc12 | inactive | 
CC(C)c1ccc(NS(=O)(=O)c2cc(Br)cc3c2N(C(=O)C2CC2)CC3)cc1 | inconclusive: 11.2 µM [inhibitor, partial curve, poor fit] | 
Cc1ccc(C(=O)N2CCn3c4c(c5cc(C)ccc53)CCCC42)cc1 (stereo not given) | inconclusive: 28.2 µM [inhibitor, partial curve, poor fit] | 
COc1ccc(CCNC(=O)c2ccc3c(c2)N(Cc2ccccc2)CCS3)cc1OC | inconclusive: 31.6 µM [inhibitor, single point] | 
CCc1ccccc1NS(=O)(=O)c1ccc2c(c1)CCCN2C(=O)C1CCC1 | inconclusive: 28.2 µM [inhibitor, single point] | 
CCCN1C(=O)C(O)(CC(=O)c2ccc(C(C)C)cc2)c2ccccc21 (stereo not given) | inconclusive: 39.8 µM [inhibitor, single point] | 
